We go through 4 substances from article PMC8222345.

By UniProt entry, the sequences of proteins in these tests, tags left out. Where a name states a change or a piece, a line headed by the entry shows the natural chain unless it says otherwise. Chains listed by the source or under a name are the forms on record and can include a tag or linker. Residues count along the entry.
UniProt Q9NRN9: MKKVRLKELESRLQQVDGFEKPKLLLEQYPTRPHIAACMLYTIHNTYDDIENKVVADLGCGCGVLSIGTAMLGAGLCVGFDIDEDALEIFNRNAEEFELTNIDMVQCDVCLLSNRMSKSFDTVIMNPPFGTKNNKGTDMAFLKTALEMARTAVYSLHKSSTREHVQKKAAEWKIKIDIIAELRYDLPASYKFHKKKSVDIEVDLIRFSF
UniProt O75838: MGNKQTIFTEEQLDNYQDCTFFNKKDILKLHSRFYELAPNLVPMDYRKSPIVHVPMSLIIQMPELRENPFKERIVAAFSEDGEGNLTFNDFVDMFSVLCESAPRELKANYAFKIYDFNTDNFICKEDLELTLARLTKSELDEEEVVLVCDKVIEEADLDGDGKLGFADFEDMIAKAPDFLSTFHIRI
HA-GST-Rheb Δ181–184 (Q15382, residues 1-180): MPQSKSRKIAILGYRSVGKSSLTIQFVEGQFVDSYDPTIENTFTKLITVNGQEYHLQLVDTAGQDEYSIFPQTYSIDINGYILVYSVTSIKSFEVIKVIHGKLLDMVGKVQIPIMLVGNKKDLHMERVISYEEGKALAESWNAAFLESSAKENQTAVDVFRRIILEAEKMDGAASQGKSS
HA-GST-Rheb D60I (Q15382, form named): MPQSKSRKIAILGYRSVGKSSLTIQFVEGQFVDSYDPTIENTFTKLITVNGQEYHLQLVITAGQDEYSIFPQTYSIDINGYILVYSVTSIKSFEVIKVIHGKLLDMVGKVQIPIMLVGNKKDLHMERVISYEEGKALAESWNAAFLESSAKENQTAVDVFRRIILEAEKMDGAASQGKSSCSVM
HA-GST-Rheb C181S (Q15382, form named): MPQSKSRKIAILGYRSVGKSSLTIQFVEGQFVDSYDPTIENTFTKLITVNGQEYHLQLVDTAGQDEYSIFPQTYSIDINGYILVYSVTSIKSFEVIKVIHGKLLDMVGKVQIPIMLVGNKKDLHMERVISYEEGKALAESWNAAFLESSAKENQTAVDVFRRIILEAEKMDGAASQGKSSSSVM
HA-GST-Rheb S20N (Q15382, form named): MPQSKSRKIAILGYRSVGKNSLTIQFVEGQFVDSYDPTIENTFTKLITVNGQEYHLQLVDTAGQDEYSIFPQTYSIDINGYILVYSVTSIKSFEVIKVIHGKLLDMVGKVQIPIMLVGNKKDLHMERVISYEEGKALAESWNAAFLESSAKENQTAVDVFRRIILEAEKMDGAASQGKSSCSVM
HA-GST-Rheb D60K (Q15382, form named): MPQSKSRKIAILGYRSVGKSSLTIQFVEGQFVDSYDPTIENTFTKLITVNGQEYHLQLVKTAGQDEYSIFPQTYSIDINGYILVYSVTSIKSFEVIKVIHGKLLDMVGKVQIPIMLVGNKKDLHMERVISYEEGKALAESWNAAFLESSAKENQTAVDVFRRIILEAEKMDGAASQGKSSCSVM
HA-GST-Rheb D60V (Q15382, form named): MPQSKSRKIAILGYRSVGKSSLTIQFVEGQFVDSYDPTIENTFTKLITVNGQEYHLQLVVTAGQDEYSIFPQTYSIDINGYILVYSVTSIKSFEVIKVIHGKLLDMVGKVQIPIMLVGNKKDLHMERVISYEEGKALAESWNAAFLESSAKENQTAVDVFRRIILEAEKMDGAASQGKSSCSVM
UniProt Q8N122: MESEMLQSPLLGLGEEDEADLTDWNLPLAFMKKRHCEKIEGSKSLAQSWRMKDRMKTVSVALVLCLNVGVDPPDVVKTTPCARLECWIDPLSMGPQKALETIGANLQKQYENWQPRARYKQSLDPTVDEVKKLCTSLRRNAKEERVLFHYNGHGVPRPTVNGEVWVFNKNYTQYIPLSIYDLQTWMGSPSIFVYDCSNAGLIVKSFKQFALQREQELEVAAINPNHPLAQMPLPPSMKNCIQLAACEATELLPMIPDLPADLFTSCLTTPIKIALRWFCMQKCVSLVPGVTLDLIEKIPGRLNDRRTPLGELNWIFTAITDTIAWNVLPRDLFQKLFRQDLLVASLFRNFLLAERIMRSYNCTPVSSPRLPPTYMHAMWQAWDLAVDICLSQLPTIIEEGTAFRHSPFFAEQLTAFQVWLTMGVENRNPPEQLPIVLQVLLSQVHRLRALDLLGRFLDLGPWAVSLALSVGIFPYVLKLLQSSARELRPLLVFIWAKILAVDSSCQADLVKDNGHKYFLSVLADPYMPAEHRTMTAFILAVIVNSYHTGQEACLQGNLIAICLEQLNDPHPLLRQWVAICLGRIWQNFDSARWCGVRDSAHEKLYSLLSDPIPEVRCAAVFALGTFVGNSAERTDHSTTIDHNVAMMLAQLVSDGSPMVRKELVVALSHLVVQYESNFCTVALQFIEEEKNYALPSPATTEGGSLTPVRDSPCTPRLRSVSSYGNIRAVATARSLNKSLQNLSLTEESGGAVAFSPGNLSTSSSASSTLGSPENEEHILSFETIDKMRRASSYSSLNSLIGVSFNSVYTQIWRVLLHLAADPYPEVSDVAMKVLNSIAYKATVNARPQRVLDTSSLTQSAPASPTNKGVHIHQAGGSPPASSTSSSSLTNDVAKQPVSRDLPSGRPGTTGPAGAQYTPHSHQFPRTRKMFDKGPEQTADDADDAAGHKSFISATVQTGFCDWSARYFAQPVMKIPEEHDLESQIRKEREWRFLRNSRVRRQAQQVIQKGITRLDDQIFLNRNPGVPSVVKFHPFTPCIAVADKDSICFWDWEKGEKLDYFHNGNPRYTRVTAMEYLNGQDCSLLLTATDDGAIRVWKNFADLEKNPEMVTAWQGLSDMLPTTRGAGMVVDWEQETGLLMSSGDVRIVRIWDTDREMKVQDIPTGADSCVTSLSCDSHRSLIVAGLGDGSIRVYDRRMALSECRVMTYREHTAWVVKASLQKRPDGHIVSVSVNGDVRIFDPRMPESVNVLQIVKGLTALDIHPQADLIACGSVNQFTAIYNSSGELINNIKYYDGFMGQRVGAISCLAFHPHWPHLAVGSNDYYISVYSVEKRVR

Results are given in words; binding and its absence hold for the method and conditions named. For part of these data: In cells and extracts the contact can be indirect. Some entries that bind do so weakly or less than the wild type.

For one experiment, the target named is GFP-hMETTL5 (human) (UniProt Q9NRN9). The experiment can be described thus: nanoscale pulldown 2.0 (NanoSPD); COS-7 cells transfected with 1 µg each of nanoTRAP (myo10 HMM-GFP nanobody), GFP-tagged bait and prey; co-accumulation of the prey with the bait at filopodia tips in fixed cells, confocal microscopy, prey/bait fluorescence ratio.
For experiment [1], the target named is GFP-hCIB2 (calcium and integrin binding protein 2) (human) (UniProt O75838). The description is as above.
The target is the same in experiment [2]. In words: nanoscale pulldown 2.0 (NanoSPD); COS-7 cells with nanoTRAP, GFP-hCIB2 (bait) and both myc-mTOR and HA-mCherry-Raptor expressed together; accumulation at filopodia tips.
A further experiment has as its target tdTomato-CIB2 (WT) (UniProt O75838). The experiment can be described thus: co-IP; HEK293 cells transfected with the indicated plasmids (PEI), lysed 36 h later in IP buffer (0.3% CHAPS, 40 mM HEPES, 2.5 mM MgCl2); HA or GST beads, 3 h or overnight at 4 °C, four washes, immunoblot; in Fig. 8f also cells treated with the farnesyl transferase inhibitor lonafarnib (1000 nM). In general terms: A western blot detects proteins with antibodies after separation by electrophoresis.

Experiment [3] deals with HA-GST-Rheb (WT) (UniProt Q15382). In words: pull-down; HA-GST-Rheb (WT) from HEK293 lysate immobilised on GST beads, washed, loaded with 1 mM GDP (1 h, 37 °C, stopped with 60 mM MgCl2); cleared tdTomato-CIB2 lysate added, rotation overnight, immunoblot; only the target purified.
Experiment [4] has the same target. The experiment can be described thus: pull-down; HA-GST-Rheb (WT) from HEK293 lysate immobilised on GST beads, washed, loaded with 100 µM GTPγS (1 h, 37 °C, stopped with 60 mM MgCl2); cleared tdTomato-CIB2 lysate added, rotation overnight, immunoblot; only the target purified.
The next experiment deals with HA-GST-Rheb Δ181–184 (UniProt Q15382). The experiment can be described thus: co-IP; HEK293 cells transfected with the indicated plasmids (PEI), lysed 36 h later in IP buffer (0.3% CHAPS, 40 mM HEPES, 2.5 mM MgCl2); HA or GST beads, 3 h or overnight at 4 °C, four washes, immunoblot; in Fig. 8f also cells treated with the farnesyl transferase inhibitor lonafarnib (1000 nM).

Another experiment deals with HA-GST-Rheb D60I (UniProt Q15382). The description is as above.
For a further experiment, the target named is HA-GST-Rheb C181S (UniProt Q15382). Described as above.
The target of a further experiment is HA-GST-Rheb S20N (UniProt Q15382). The experiment is described as above.
In the next experiment the target is HA-GST-Rheb D60K (UniProt Q15382). The description is as above.
The target of another experiment is HA-GST-Rheb D60V (UniProt Q15382). Described as above.
Experiment [5] addresses HA-GST-Rheb (WT) (UniProt Q15382). The description is as above.

“HA-GST-Rheb (prey in COS-7 cells) (from UniProt Q15382 1-184)”: the results for the binding entry (with GFP-hMETTL5 (human); in experiment [1]) were “no binding” and “binds”, respectively.
In the case of “HA-mCherry-Raptor (from UniProt Q8N122 1-1335)”, the binding result in experiment [2] is reported as “binds”; with GFP-hMETTL5 (human), “no binding”; in experiment [1] it was “binds”.
Take “Raptor (exogenously expressed in HEK293 cells) (from UniProt Q8N122 1-1335)”: the binding result with tdTomato-CIB2 (WT) is reported as “binds”.
Turning to “tdTomato-CIB2 (WT) (from UniProt O75838 1-187)”, the binding result with HA-GST-Rheb (WT) [3], in the experiment with HA-GST-Rheb (WT) [4], with HA-GST-Rheb Δ181–184, with HA-GST-Rheb D60I, with HA-GST-Rheb C181S and with HA-GST-Rheb S20N was “binds” each time. In addition, the binding result with HA-GST-Rheb D60K, with HA-GST-Rheb D60V and with HA-GST-Rheb (WT) [5] was “binds” throughout.
